# The list shows a part of the results.
# Tests used:
# Assay in all cases: glycan array binding signal (z-score within array); higher = stronger binding
# Conditions in all cases: glycan notation: IUPAC condensed, linker removed
# [1] = target: Man(a1-2)Man(a1-3)[Man(a1-3)[Man(a1-6)]Man(a1-6)]Man(b1-4)GlcNAc(b1-4)GlcNAc
# In short: (§1)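 From the Consortium for Functional Glycomics database, 3228 arrays were curated, keeping only those whose protein sequence was available. Binding is given as a within-array Z-score averaged across arrays sharing a protein sequence and across linkers. Negative Z-scores can be read as non-binding.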
# [2] = target: Man(a1-2)Man(a1-3)[Man(a1-6)]Man(a1-6)[Man(a1-2)Man(a1-3)]Man(b1-4)GlcNAc(b1-4)GlcNAc
# In short: as §1
# [3] = target: Man(a1-2)Man(a1-6)[Man(a1-3)]Man(a1-6)[Man(a1-2)Man(a1-2)Man(a1-3)]Man
# In short: as §1
# [4] = target: Man(a1-2)Man(a1-6)[Man(a1-3)]Man(a1-6)[Man(a1-2)Man(a1-2)Man(a1-3)]Man(b1-4)GlcNAc(b1-4)GlcNAc
# In short: as §1
# [5] = target: Man(a1-3)[Man(a1-6)]Man
# In short: as §1
# [6] = target: Man(a1-3)[Man(a1-6)]Man(a1-6)[Man(a1-2)Man(a1-3)]Man(b1-4)GlcNAc(b1-4)GlcNAc
# In short: as §1
# [7] = target: Man(a1-3)[Man(a1-6)]Man(a1-6)[Man(a1-3)]Man
# In short: as §1
# [8] = target: Man(a1-3)[Man(a1-6)]Man(a1-6)[Man(a1-3)]Man(b1-4)GlcNAc(b1-4)GlcNAc
# In short: as §1
# [9] = target: Man(a1-3)[Man(a1-6)]Man(b1-4)GlcNAc(b1-4)GlcNAc
# In short: as §1
# [10] = target: Man(a1-3)[Man(a1-6)]Man(b1-4)GlcNAc(b1-4)[Fuc(a1-6)]GlcNAc
# In short: as §1
# [11] = target: Man(a1-6)Man
# In short: as §1
# [12] = target: Man(b1-4)GlcNAc
# In short: as §1
# [13] = target: MurNAc(b1-4)GlcNAc
# In short: as §1
# [14] = target: Neu5Ac(a2-3)Gal
# In short: as §1
# [15] = target: Neu5Ac(a2-3)Gal(b1-3)GalNAc
# In short: as §1
# [16] = target: Neu5Ac(a2-3)Gal(b1-3)GalNAc(b1-3)Gal(a1-4)Gal(b1-4)Glc
# In short: as §1
# [17] = target: Neu5Ac(a2-3)Gal(b1-3)GalNAc(b1-4)[Neu5Ac(a2-3)]Gal(b1-4)Glc
# In short: as §1
# [18] = target: Neu5Ac(a2-3)Gal(b1-3)GalNAc(b1-4)[Neu5Ac(a2-8)Neu5Ac(a2-3)]Gal(b1-4)Glc
# In short: as §1
# [19] = target: Neu5Ac(a2-3)Gal(b1-3)GalNAc6S
# In short: as §1
# [20] = target: Neu5Ac(a2-3)Gal(b1-3)GlcNAc
# In short: as §1
# [21] = target: Neu5Ac(a2-3)Gal(b1-3)GlcNAc(b1-2)Man
# In short: as §1
# [22] = target: Neu5Ac(a2-3)Gal(b1-3)GlcNAc(b1-2)Man(a1-3)[GlcNAc(b1-4)][Neu5Ac(a2-3)Gal(b1-3)GlcNAc(b1-2)Man(a1-6)]Man(b1-4)GlcNAc(b1-4)GlcNAc
# In short: as §1
# [23] = target: Neu5Ac(a2-3)Gal(b1-3)GlcNAc(b1-2)Man(a1-3)[Neu5Ac(a2-3)Gal(b1-3)GlcNAc(b1-2)Man(a1-6)]Man(b1-4)GlcNAc(b1-4)GlcNAc
# In short: as §1
# [24] = target: Neu5Ac(a2-3)Gal(b1-3)GlcNAc(b1-2)[Neu5Ac(a2-3)Gal(b1-3)GlcNAc(b1-4)]Man(a1-6)[Neu5Ac(a2-3)Gal(b1-3)GlcNAc(b1-2)Man(a1-3)]Man(b1-4)GlcNAc(b1-4)GlcNAc
# In short: as §1
# [25] = target: Neu5Ac(a2-3)Gal(b1-3)GlcNAc(b1-3)Gal(b1-3)GlcNAc
# In short: as §1
# [26] = target: Neu5Ac(a2-3)Gal(b1-3)GlcNAc(b1-3)Gal(b1-4)GlcNAc
# In short: as §1
# [27] = target: Neu5Ac(a2-3)Gal(b1-3)GlcNAc(b1-3)GalNAc
# In short: as §1
# [28] = target: Neu5Ac(a2-3)Gal(b1-3)GlcNAc(b1-4)Gal(b1-4)Glc
# In short: as §1
# [29] = target: Neu5Ac(a2-3)Gal(b1-3)GlcNAc(b1-6)GalNAc
# In short: as §1
# [30] = target: Neu5Ac(a2-3)Gal(b1-3)GlcNAc6S
# In short: as §1
# [31] = target: Neu5Ac(a2-3)Gal(b1-3)[Fuc(a1-4)]GlcNAc
# In short: as §1
# [32] = target: Neu5Ac(a2-3)Gal(b1-3)[Fuc(a1-4)]GlcNAc(b1-3)Gal(b1-3)[Fuc(a1-4)]GlcNAc
# In short: as §1
# [33] = target: Neu5Ac(a2-3)Gal(b1-3)[Fuc(a1-4)]GlcNAc(b1-3)Gal(b1-4)[Fuc(a1-3)]GlcNAc
# In short: as §1
# [34] = target: Neu5Ac(a2-3)Gal(b1-3)[GlcNAc(b1-6)]GalNAc
# In short: as §1
# [35] = target: Neu5Ac(a2-3)Gal(b1-3)[Neu5Ac(a2-3)Gal(b1-4)]GlcNAc
# In short: as §1
# [36] = target: Neu5Ac(a2-3)Gal(b1-3)[Neu5Ac(a2-6)]GalNAc
# In short: as §1
# [37] = target: Neu5Ac(a2-3)Gal(b1-3)[Neu5Ac(a2-6)]GlcNAc(b1-3)[Fuc(a1-3)[Gal(b1-4)]GlcNAc(b1-6)]Gal(b1-4)Glc
# In short: as §1
binder,measurement,setting,value
Epa12 (Candida glabrata) (protein) MGSSHHHHHHSSGLVPRGSHMLEPDNSLQIFDSFLSNPSKYPLGCSPKITNPKKGLSMELYSYPYRKKGSHPCWDPAYLDPNFPRVGYKKNKLIARVDGVSGDINFNFHPKRQCTPIADYLPPNFNYNEPITTTNFTMLLYGYFKPKVTGLHTFDISADDLLFMNFGAGNAFDCCRRDSTADTFGNYVAWAIWGRRIVRNKLTVRLDKGIYYPLRLFFNNRDYYGQMRLTFKTEHGSERITDFSDYFFSVDDTSEGCPGLITYESECADVKSSTVLETDYITIQAEKE,glycan array binding signal (z-score),[1],-0.282
same,glycan array binding signal (z-score),[2],-0.345
same,glycan array binding signal (z-score),[3],-0.548
same,glycan array binding signal (z-score),[4],-0.265
same,glycan array binding signal (z-score),[5],-0.26
same,glycan array binding signal (z-score),[6],-0.182
same,glycan array binding signal (z-score),[7],-0.309
same,glycan array binding signal (z-score),[8],-0.222
same,glycan array binding signal (z-score),[9],-0.31
same,glycan array binding signal (z-score),[10],-0.335
same,glycan array binding signal (z-score),[11],-0.189
same,glycan array binding signal (z-score),[12],-0.301
same,glycan array binding signal (z-score),[13],-0.373
same,glycan array binding signal (z-score),[14],-0.341
same,glycan array binding signal (z-score),[15],-0.136
same,glycan array binding signal (z-score),[16],-0.269
same,glycan array binding signal (z-score),[17],-0.309
same,glycan array binding signal (z-score),[18],-0.41
same,glycan array binding signal (z-score),[19],0.197
same,glycan array binding signal (z-score),[20],-0.303
same,glycan array binding signal (z-score),[21],-0.336
same,glycan array binding signal (z-score),[22],-0.138
same,glycan array binding signal (z-score),[23],-0.234
same,glycan array binding signal (z-score),[24],-0.349
same,glycan array binding signal (z-score),[25],-0.43
same,glycan array binding signal (z-score),[26],-0.332
same,glycan array binding signal (z-score),[27],-0.23
same,glycan array binding signal (z-score),[28],-0.295
same,glycan array binding signal (z-score),[29],-0.311
same,glycan array binding signal (z-score),[30],-0.283
same,glycan array binding signal (z-score),[31],-0.368
same,glycan array binding signal (z-score),[32],-0.342
same,glycan array binding signal (z-score),[33],-0.294
same,glycan array binding signal (z-score),[34],-0.356
same,glycan array binding signal (z-score),[35],-0.255
same,glycan array binding signal (z-score),[36],-0.335
same,glycan array binding signal (z-score),[37],-0.203

# Source: the supplement of paper PMC8728848
